# Test results: PubChem BioAssay AID1476 (National Center for Advancing Translational Sciences (NCATS), 2009)
# Where “and” joins values, the source holds several entries; their conditions need not be identical. Equal values may be shown once. Among all 200,000 compounds or so, about 4,500 (2.2%) were called active. This list was built around the results that the source calls inconclusive (neither active nor inactive); the mix of calls is not that of the screen. The call rests on the fitted dose curve; in most records, active means well fitted inhibition curve with a large enough effect; inconclusive means small, poorly fitted or top-dose-only effect, or effect the other way; inactive means flat fitted curve, though single readings scatter. Where the call is inconclusive, the potency comes from a doubtful curve fit.
# Target: Cruzipain (Trypanosoma cruzi) (UniProt P25779)
# Sequence of UniProt P25779 (P25779 whole entry, looked up): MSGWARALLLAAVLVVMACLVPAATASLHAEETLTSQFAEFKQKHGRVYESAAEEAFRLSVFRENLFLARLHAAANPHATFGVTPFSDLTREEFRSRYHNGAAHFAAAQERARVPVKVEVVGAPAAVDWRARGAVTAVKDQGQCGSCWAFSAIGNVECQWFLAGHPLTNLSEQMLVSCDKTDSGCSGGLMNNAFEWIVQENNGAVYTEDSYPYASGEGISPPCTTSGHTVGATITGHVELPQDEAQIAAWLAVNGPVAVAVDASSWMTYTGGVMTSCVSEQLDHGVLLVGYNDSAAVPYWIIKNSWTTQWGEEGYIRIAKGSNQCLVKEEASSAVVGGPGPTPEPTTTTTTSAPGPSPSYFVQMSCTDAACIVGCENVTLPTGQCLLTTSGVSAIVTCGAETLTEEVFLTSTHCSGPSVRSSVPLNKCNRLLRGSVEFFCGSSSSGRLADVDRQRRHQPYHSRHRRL
# Experiment: qHTS Assay for Promiscuous and Specific Inhibitors of Cruzain (without detergent); further: nearly all actives have a fitted effect of over 40% in size;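 on max response, negative = inhibition: plate controls were enzyme without inhibitor for no effect and buffer without enzyme for full effect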
# Conditions: purified cruzain, Z-FR-AMC fluorescence, no detergent
# Procedure, shortened: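 Purified cruzain at 1.5 nM, pre-incubated 15 min with compound at room temperature in 100 mM sodium acetate pH 5.5, 5 mM DTT, 0.00005% Triton X-100. Reaction started with 2 uM Z-FR-AMC; AMC fluorescence increase over 60 s gives rate.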
# Potency means the concentration at half of the fitted maximal effect; tags describe the fitted curve by direction and shape.
Compound,"max response, negative = inhibition",Potency
CN(Cc1ccco1)c1ncncc1-c1cccc(C#N)c1,inactive: -10.3%,
COc1ccc(C(CNC(=O)c2cccc([N+](=O)[O-])c2)N2CCOCC2)cc1 (configuration not stated),inactive: 2.02%,
C=CCSc1nnc(NC(=O)CSc2ccccn2)s1,inactive: -1.88%,
COc1ccccc1S(=O)(=O)Cc1ccc(C(=O)N2CCN(c3cccc(Cl)c3)CC2)o1,,"inconclusive: 31.6 µM [activator, partial curve]"
O=C1CN(C(=O)c2cc3ccccc3oc2=O)C(c2ccc(F)cc2)c2cc(Br)ccc2N1 (configuration not stated),,"inconclusive: 39.8 µM [inhibitor, single point]"
CCc1ccc(NC(=O)CN2CCSc3ccc(S(=O)(=O)N4CCCC4)cc32)cc1,inactive: -26.3%,
Cc1cccc(OCc2nnc(SCC(=O)Nc3cccc(C(=O)N4CCOCC4)c3)o2)c1C,,"inconclusive: 31.6 µM [activator, single point]"
N#CC1=C2Nc3ccccc3N2C(=O)NC1(c1ccccc1)C(F)(F)F (configuration not stated),,"inconclusive: 39.8 µM [inhibitor, single point]"
O=S(=O)(NC1CC2CCC1C2)c1ccc(Br)s1 (configuration not stated),,"inconclusive: 39.8 µM [inhibitor, single point]"
Cc1cccc(-n2c(-c3csc4ccccc34)n[nH]c2=S)c1,,"inconclusive: 31.6 µM [inhibitor, single point]"
COc1ccc(COc2cc(-c3cccc(OC)c3)nc3ccc(NC(=O)c4ccc(C)cc4)cc23)cc1,,active: 6.31 µM and active: 7.94 µM
Cc1cc(C)cc(-n2ccnc2SCC(=O)Nc2ccc(C)cc2C)c1,,"inconclusive: 2 µM [activator, partial curve, poor fit]"
CCOc1cc(C2C(C#N)=C(N)SC(N)=C2C#N)ccc1OCCN1CCOCC1,,"inconclusive: 31.6 µM [inhibitor, single point]"
COc1ccc(-c2cc(C(=O)NCc3ccc(F)cc3)no2)cc1,,"inconclusive: 25.1 µM [inhibitor, single point]"
COc1cc(C2N=C(N)Nc3nc4ccccc4n32)ccc1OCC(=O)O (configuration not stated),inactive: 5.76%,
COc1ccc(-c2cc(C(C)=O)c(C)n2CCC(=O)Nc2ccc(C)cc2Cl)cc1,inactive: 1.03%,
CCn1nc(-c2cccs2)nc2c(=O)n(C)c(=O)nc1-2,,active: 2 µM
COCC(=O)N1CCC2(CC1)CCN(c1cccc(-c3ccccc3)c1)CC2,,"inconclusive: 39.8 µM [activator, single point]"
COc1ccc(Cn2c(O)c(C=Nc3ccc(C)cc3)c3ccccc3c2=O)cc1,,active: 12.6 µM
COCCn1c(C)cc(O)c(C(c2ccc(Cl)cc2)N2CCN(c3ccccc3)CC2)c1=O (configuration not stated),inactive: 17%,
COc1ccc(NC(=O)Nc2cccc(OCc3cc(=O)n4cccc(C)c4n3)c2)c(OC)c1,,"inconclusive: 6.31 µM [activator, single point]"
CN1C(C(=O)c2ccccc2)=C(NC(=O)c2ccccc2Br)c2ccccc2S1(=O)=O,inactive: -13.2%,
C[C@@]1(C(NC(=O)c2cccs2)c2ccc(-c3ccccc3)cc2)C[C@H]1C1CCCCC1 (some centres not stated),,active: 3.98 µM

Compound,"max response, negative = inhibition",Potency
COCCCNC(=O)CCn1c(=O)c2ccccc2n(CC(=O)Nc2cc(Cl)ccc2C)c1=O,,"inconclusive: 31.6 µM [activator, single point]"
COc1cc2oc(=O)cc(-c3ccc(-c4ccc(C#N)cc4)cc3)c2c(OC)c1OC,,active: 35.5 µM
CCc1ccc(S(=O)(=O)c2nnn3c2nc(Nc2cc(OC)cc(OC)c2)c2cc(Cl)ccc23)cc1,inactive: -3.68%,
COC(=O)/C(NC(C)=O)=C(\C)c1ccc(Cl)cc1,,"inconclusive: 6.31 µM [activator, single point]"
CC(C)c1ccc(N2CCN(C(=O)c3ccccc3NC(=O)/C=C\C(=O)O)CC2)cc1,,"inconclusive: 39.8 µM [activator, single point]"
CCOC(=O)/C(C)=N/NC(C)=O,inactive: -2.93%,
Cc1cccc(N2CC(c3nc4ccccc4n3CCC3CCCCC3)CC2=O)c1 (configuration not stated),inactive: -7.64%,
COc1ccc(CCNC(=O)c2cc3c(s2)-c2c(C)cccc2OC3)c(OC)c1,,"inconclusive: 39.8 µM [inhibitor, single point]"
CCN(CC)Cc1c(O)ccc2c(C)c(CC(=O)OC)c(=O)oc12,,"inconclusive: 31.6 µM [inhibitor, single point]"
CCOC(=O)C1CCCN(S(=O)(=O)c2cc(Br)cc3c2N(C(=O)C2CC2)CC3)C1 (configuration not stated),,"inconclusive: 31.6 µM [activator, single point]"
c1ccc2c(C[n+]3csc4ccccc43)cccc2c1,,"inconclusive: 15.8 µM [inhibitor, partial curve, poor fit]"
COc1ccc(-c2nnc(SCC(=O)c3cccs3)o2)c(OC)c1,,"inconclusive: 31.6 µM [activator, single point]"
CCOC(=O)N1CCc2c(sc3c2c(=O)n(-c2ccc(Cl)cc2)c(=O)n3Cc2cccc(OC)c2)C1,inactive: -6.66%,
COc1ccc(OC)c(C2=Nn3c(nnc3-c3cc(OC)c(OC)c(OC)c3)SC2)c1,,"inconclusive: 31.6 µM [activator, single point]"
CC1CCCCN1CCCNC(=O)c1ccc2c(c1)sc1nc(-c3ccc(F)cc3)cn12 (configuration not stated),inactive: 1.51%,
CCc1ccc(Oc2c(C(F)(F)F)oc3c(CN4CCN(CC)CC4)c(O)ccc3c2=O)cc1,inactive: 0.443%,
O=C(Nc1nc2ccc(S(=O)(=O)N3CCCC3)cc2s1)c1ccc(F)cc1,inactive: -5.28%,
CCc1nn(CC(=O)NCc2ccccc2Cl)c(=O)c2cc3ccccc3n12,inactive: 7.03%,
OC[C@H]1NC[C@H](O)[C@@H](O)[C@H]1O,inactive: 1.09%,
N#C/C(=C\c1cc([N+](=O)[O-])c(N2CCOCC2)cc1N1CCOCC1)c1nc2ccccc2[nH]1,,"inconclusive: 39.8 µM [activator, single point]"
CCOc1ccc(NC(=O)[C@H]2O[C@@H]3OC(C)(C)O[C@@H]3[C@H]3OC(C)(C)O[C@H]32)cc1,inactive: 3.88%,
COc1cccc(C2=C(C(C)=O)Sc3nnc(C4CCCCC4)n3N2C(C)=O)c1,,"inconclusive: 15.8 µM [activator, partial curve]"
CS(=O)(=O)N(Cc1ccc(Cl)cc1)c1ccc(C(=O)N/N=C/c2cc3ccccc3nc2Cl)cc1,,"inconclusive: 39.8 µM [inhibitor, single point]"

Compound,"max response, negative = inhibition",Potency
Cc1cc(C(=O)Cn2nnc(-c3ccc(Cl)cc3)n2)c(C)n1CC1CCCO1 (configuration not stated),inactive: -10.6%,
CCC1=Nc2cc(C(=O)NCc3ccccc3Cl)ccc2Sc2ccc(C)cc21,,"inconclusive: 39.8 µM [inhibitor, single point]"
CCOC(=O)c1ccc(NC(=O)C(CC)Sc2nnc3c4ccccc4n(C)c3n2)cc1 (configuration not stated),,"inconclusive: 3.16 µM [activator, single point]"
O=S1(=O)C=C(Sc2nc3ccccc3s2)c2ccccc21,,"inconclusive: 25.1 µM [inhibitor, single point]"
CC1(CC(=O)N/N=C/c2ccc(OCc3ccc(Cl)cc3Cl)cc2)OCCCO1,,"inconclusive: 31.6 µM [activator, single point]"
COc1ccc(CCNC(=O)c2cc3sc(Cl)cc3n2C)cc1OC,,"inconclusive: 39.8 µM [activator, single point]"
NS(=O)(=O)c1cc(Br)c(N=Nc2ccc(O)c3ncccc23)c(Br)c1,inactive: -4.86%,
CC(C)(C)OC(=O)N[C@@H](Cc1ccccc1)c1nnc(S(=O)(=O)Cc2ccccc2)o1,,active: 31.6 µM
COc1ccc(CNC(=O)Cn2c(=O)nc(-c3ccccc3F)c3cc(Cl)ccc32)cc1OC,inactive: 2.24%,
Cc1c(Cl)ccc2c1NC(=O)[C@]21[C@@H]2C(=O)N(Cc3ccccc3)C(=O)[C@@H]2[C@@H]2CCCN21,,"inconclusive: 25.1 µM [activator, single point]"
CCc1ccc(S(=O)(=O)c2cnc3ccc(OC)cc3c2N2CCCC(C)C2)cc1 (configuration not stated),inactive: -10.1%,
Cc1noc(/C=C/c2ccc(-c3ccccc3Cl)o2)c1[N+](=O)[O-],,"inconclusive: 31.6 µM [inhibitor, single point]"
CCOC(=O)c1c(C)[nH]c(CCC(=O)Nc2c(Cl)cc(OC)cc2OC)c1C,inactive: -11.6%,
CCOC(=O)C1CCCN(S(=O)(=O)c2ccc3c(c2)CCN3C(=O)CC)C1 (configuration not stated),inactive: -3.25%,
Cc1nc(Oc2cccc(Cl)c2)c2oc3ccccc3c2n1,,"inconclusive: 31.6 µM [activator, single point]"
Cc1ccc(-c2cc(C(=O)N/N=C/c3c(C)nn(C)c3C)c3ccccc3n2)c(C)c1,,"inconclusive: 31.6 µM [activator, partial curve]"
COc1cccc(C(c2nnnn2Cc2ccccc2)N2CCN(C(=O)c3ccco3)CC2)c1OC (configuration not stated),,"inconclusive: 39.8 µM [activator, single point]"
COc1cc2c(cc1NC(=S)Nc1cccc(C(F)(F)F)c1)oc1ccccc12,,active: 15.8 µM
Cc1cc(C)n(-c2ccc(C(=O)OCC(=O)c3c(N)n(C)c(=O)n(C)c3=O)cc2)n1,,"inconclusive: 39.8 µM [activator, single point]"
CCN1C(=O)c2cccc3c(NC(=O)c4ccc5c(c4)OCCO5)ccc1c23,,"inconclusive: 25.1 µM [inhibitor, single point]"
Cc1ccc(NC(=O)c2ccc(OC(=O)COc3ccc(Cl)c(C)c3)cc2)cc1,,active: 15.8 µM
